B1: CPEB3 Ribozyme (parent)
chain: UAACAGGGGGCCACAGCAGAAGCGUUCACGUCGCAGCCCCUGUCAGAUUCUGGUGAAUCUGCGAAUUCUGCUGUAUAUCUC

The source gives no read counts; variants with many changes may rest on few reads.

The data set covers variants of B1. The data set can be described thus: self-cleavage, relative activity (ratio to wild type); higher = more cleavage; in vitro, sequencing. The procedure, abridged:
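CPEB3 self-cleaving ribozyme mutant libraries were made by rounds of error-prone PCR, barcoded, and transcribed in vitro with T7 RNA polymerase for 5 hours at 37°C. Cleavage occurred during transcription and a 15 min DNase I step before EDTA stop. RNAs were reverse transcribed with template switching and Illumina-sequenced, with DNA sequencing mapping barcodes to variants. Relative activity is the variant's cleaved/total read fraction divided by wild type's (minimum 5 reads), averaged across three batches.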
Consider C11G A21U U43A U69C, for which the self-cleavage was 0.25. Take G10C U25C A35U A65C U74C: the self-cleavage is 0.06. To C11G U43A A56G belongs 0.51. Take G10U U25C U72C: the self-cleavage was found to be 0.18. The figure for G10U U25C G61C U74A A75U is 0.02; for C11A A35G C40A U49C U69C it is 0.07.

As for G10U G19U G42A U58C, the self-cleavage turned out to be 0.06. On to C11A A21G A28G, for which the self-cleavage came to 0.06. The figure for C11G C23U G36U U51C U69C is 0.04. To C11G A15U U49A U60A A75C belongs 0.1; to C11G C17U U41C, 0.54. To C11G A20G U26C U54C A56U belongs 0.09.

Regarding C11G A18G C23A U51G U72A, the self-cleavage amounted to 0.04. To C11A A20G A35G A45G belongs 0.18. As for C11A C32U G42A U51A U54C U76A, the self-cleavage stood at 0.03.

As for G10U A18G C23A U25C A45G, the self-cleavage worked out at 0.03. To C11G U41C U74C belongs 1; to G10C U60A U72G U76C, 0.08. As for C11G C40U U51A A57G, the self-cleavage was determined as 0.37.

As for G10U A21G U25C U31A G33U U43A U78C, the self-cleavage stood at 0.05. To C11A A21G G24A A35U A56G belongs 0.04; to G10U C29U A45G, 0.05. To G10U A15G U25C A35U A57G belongs 0.28; to G10U A20G A35G C38U U41A U49C G63A, 0.04; to C11A A15G A75G, 0.43. The figure for C11G U26C G36A U41C U51A is 0.24; for G10C C27U U41G U51G A57G it is 0.05.

Take C11G U25C U60C U80C: the self-cleavage is 0.08. To C11G A13G A15U A20U A21U C40U U78C belongs 0.06; to C11G U31C A45U U69G, 0.12; to C11A G16U G30A U66C A77U, 0.05. The figure for C11A A20G A28G is 0.3; for C11G C17U C39G it is 0.21. For the variant C11G U26G U43C A56G U72C, the self-cleavage was found to be 0.14.

For G10U A18G A21G U26C G61U, the self-cleavage came out at 0.05. To C11G A20G U25C A28G belongs 0.41; to C11A A18G C27G, 0.47; to C11G U49A G52A, 0.59. Consider C11G A45G A47G, for which the self-cleavage was determined as 0.1. To C11A C14U U26C U41G A77C belongs 0.06; to G10U A28G C50U U54C, 0.05.

In the case of C11G A18U A21G C37A A45G U60C, the self-cleavage came to 0.03. The figure for C11A A15G A35G is 0.25. Turning to C11A A21G A57U, the self-cleavage came out at 0.06. As for C11A A21G A57G, the self-cleavage was 0.09. With G10U C32U G36U U41A U54C U67A A77U, the self-cleavage was 0.05. As to C11G A18U U60C, the self-cleavage was 0.19. Regarding C11A A13U A15U A20G C27A G36A U72C, the self-cleavage is 0.27.

With C11G U26G U48C A64G A65G U76C U78C, the self-cleavage amounted to 0.07.

In the case of G10U A28G C29U C38A A56G U58C U78A, the self-cleavage amounted to 0.03.

For C11A A13G C37A A56U G70C, the self-cleavage amounted to 0.06.

Consider C11A A21G C32A U43C U67A, for which the self-cleavage was 0.04. To C11A G30A U31C U69C belongs 0.21; to C11G A15G U78C, 0.54. To G10U C29A U43G U60C belongs 0.13. C11G A47G U48C: the self-cleavage was determined as 0.08. C11A U31A U60C: the self-cleavage worked out at 0.05. To G10U G24A U54C U58C belongs 0.08; to C11G G22A U51A U54A U72A U78A, 0.04; to C11G G16A A21G U49C U67C U80C, 0.05. With C11G U43C U58C A64U, the self-cleavage is 0.19. The figure for C11G A21G U49C U51C U78G is 0.16. C11G A18U U54A: the self-cleavage was found to be 0.5. To C11G A18G A56G U69C belongs 0.2; to C11G A15U A45G U80C, 0.18.

As for C11G A45G U48A U72C, the self-cleavage is 0.28. To G10C U51C U72A U80C belongs 0.07; to G10U A20G G63A, 0.21. To G10C U25A A57G belongs 0.09; to C11G U26C C32U G46U, 0.17. On to C11A A13C A18G U48A U69C, for which the self-cleavage came out at 0.05. The figure for C11G A20U U26C U66C U78C is 0.03; for C11G A20G G33A U41C it is 0.14; for G10U A56U U69C U72C U76C it is 0.07. For the variant C11G A18U U26A U49C U60C, the self-cleavage is 0.03.

In the case of C11G G16U A47G A64G U69C, the self-cleavage came to 0.16. As for G10C U25C U43A A45G U74C U78C, the self-cleavage is 0.06. As to C11A U26C U60C, the self-cleavage was 0.04. The figure for C11A U51C U76C is 0.4; for G10U A20G A21U U80C it is 0.28. In the case of C11G U26C A35G U60A G63A C79U, the self-cleavage turned out to be 0.06. For the variant G10U U49A U58A A64G U67C U80C, the self-cleavage came to 0.05. To C11G U31C A35U U41C U80C belongs 0.33. To C11G U31G U51G U54C A75U belongs 0.09. The figure for C11G U26A A28G U31A A45G is 0.05; for C11G A20U U66C U69A it is 0.03; for C11A A20G U78A it is 0.05. Take G10C U26C C27U A56G: the self-cleavage came out at 0.13. Take C11A A15G U49A U72C U80C: the self-cleavage was found to be 0.09. With C11A U41C U60G U66C, the self-cleavage amounted to 0.11. The figure for C11A U43C U48C A65G A75G is 0.2. With C11A C34A U78C, the self-cleavage was 0.29. As to C11A A13G U25A U43A U60A U78A, the self-cleavage turned out to be 0.03. With C11A A18G A64U, the self-cleavage came to 0.21. On to G10C U78C U80A, for which the self-cleavage came to 0.2.

Take G10C G24C G36U G70U: the self-cleavage was found to be 0.11. The figure for C11G A28G U31A U41C is 0.07. For the variant C11G A15U A21G A57G U78A, the self-cleavage worked out at 0.08. The figure for G10U U51A U60A G70A U80C is 0.12; for C11G G30A U31C U49G U51C G53U U66C it is 0.04; for C11G G22U C27U U31A U48G U49A U69C it is 0.08. With G10U A18U A21G U31C U78C U80A, the self-cleavage is 0.16.

As to C11G U25C U26C U41A A64G A65G U69C, the self-cleavage came out at 0.29. The figure for C11A A20G G33A is 0.28; for C11G A21U U26A G30U A45G A56C U60A it is 0.04; for G10C U43A U49A it is 0.15. Take C11G C17U U51C: the self-cleavage amounted to 0.35.

On to C11G C32A A45G U54C, for which the self-cleavage amounted to 0.08.

With G10U A21G U31A C39U A64U U67C U76A, the self-cleavage is 0.03. On to C11G A20U C29U U80C, for which the self-cleavage was 0.29.

For C11A A15U A20G U41A A47G U49C A64G, the self-cleavage turned out to be 0.03. For the variant C11G C34G A64G U72C, the self-cleavage worked out at 0.08. Consider C11A A28U A45U, for which the self-cleavage stood at 0.11. For the variant C11G A28U U31A A45G A47G, the self-cleavage amounted to 0.04. For C11A A28G C40U A45G A64U, the self-cleavage is 0.05.

Regarding G10U C23G A47G U48A U49C A65G, the self-cleavage was found to be 0.06. The figure for G10C U51C U66C U78C is 0.06; for C11G C40U U43A it is 0.21. For the variant C11A A18G U72C U78C, the self-cleavage is 0.33. For G10U A18G U31C C39U U67C, the self-cleavage is 0.04. The figure for G10U C14U G24C U41G U80C is 0.04.

In the case of C11G U31A U41C U51C U54C A56G U67C, the self-cleavage worked out at 0.06.

Take C11A U49C G61U U72C: the self-cleavage came out at 0.13. To C11G A13G U43C belongs 0.41. With G10U U26C C40U A56U A57G, the self-cleavage is 0.06.

C11G A13U A18U A64U U69G: the self-cleavage was 0.1. Take C11A C34U U51A U78C: the self-cleavage is 0.05. As to C11G C23U U31A U48C, the self-cleavage is 0.04. Turning to C11G A56G C81U, the self-cleavage was found to be 0.25. C11A U43A U48C: the self-cleavage was determined as 0.32. To C11G U26C U51C U58A U69C U80C belongs 0.07; to C11G U43C U51A C62A A64G U78A, 0.04; to G10U U26A U41C G63U, 0.2.

Take C11G U31G U41A C71G: the self-cleavage amounted to 0.05. In the case of C11A A15U A65G, the self-cleavage worked out at 0.17. To C11G A15U G30C A35U U80C belongs 0.07. On to C11A A13U A35U G42U A45G U74C, for which the self-cleavage was 0.07.

Regarding C11G C17U C29U A45G A56U, the self-cleavage is 0.06. The figure for C11G G30A A47G A65G is 0.07; for C11A U25G U74C A75G it is 0.25. In the case of C11G A15G A45U U78C, the self-cleavage is 0.08. The figure for C11G A15U A20U U41A A56G U66C is 0; for G10C G19U A45U A65G it is 0.05; for C11G U25G A28G G30A A45C it is 0.05. As to C11A A35G A57C U78C, the self-cleavage came to 0.41.

On to C11G A57G A64G U66C, for which the self-cleavage was 0.13. The figure for C11G A15U U31A is 0.12; for C11G A13G A18U A28G U31C U54C U80C it is 0. With G10C G16A U41C U48A, the self-cleavage was determined as 0.07. With C11A U25C A28U G33U, the self-cleavage worked out at 0.07. To C11G U25C A65G belongs 0.08; to C11G A35G U69C, 0.46; to G10C G36U A56G A57G U58C, 0.04. The figure for C11A U26C A28U U51A A57G U72A is 0.03; for C11A A45G U78C it is 0.29.

C11G C27G U67C U72A: the self-cleavage is 0.04. To C11G U26G U51C A56G U66C U80A belongs 0.04; to C11G A21G U41C A47G G53U A64G, 0.05; to C11G A45G U51C, 0.36. To C11A A13G C29U C39G U54C U72C belongs 0; to C11A U25C A35G U66C, 0.3; to C11G U26C U51A U60A, 0.23. To C11G U43A C59A U67C belongs 0.05; to C11A C17G A45G U67A, 0.04; to C11G A13U A28G U69C U78C, 0.06. Take C11A C23G A35G U49A U54C U78C: the self-cleavage came to 0.02. As to G10U A13G A57G U60A, the self-cleavage stood at 0.06.

Values taken from the RNAGym collection of RNA variant scans (doi:10.1093/nar/gkz1192).
